The results in this text go back to ChEMBL document CHEMBL1201862, “PubChem BioAssay data set” (2004).

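Growth conditions: 96-well plates. Treatment: test compound, 48 hours, 5 concentrations. Analysis: linear interpolation between bracketing concentrations; unreached endpoints set to highest concentration. Abbreviation: GI50, concentration required for 50% inhibition of growth.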 Active and inactive are the calls of the source. Cut-off read from the data, not from the text of the source: active = GI50 up to about 1.1 µM and inactive = higher.

In this assay the test system is NCI-H322M. The assay is described as follows: NCI tumour cell line growth inhibition, 48 h.
As to `O=C(O)c1ccc(C(=O)Nc2cccc3ccccc23)c(C(=O)O)c1`, the GI50 was inactive: > 100 µM. For the compound `COc1cc2c(cc1OC)C(=O)/C(=C/c1ccc(O)cc1)CC2`, the GI50 is inactive: > 10 µM.

In the case of `CCOC(=O)c1cc2cc([N+](=O)[O-])ccc2oc1=O`, the GI50 is inactive: > 100 µM. As to `O=C1CCC2(c3ccccc3)Nc3ncccc3N12` (stereo not given), the GI50 was inactive: > 100 µM. Next, `O=c1nc2n(CCO)c(-c3ccccc3)c(-c3ccccc3)nc-2c(=O)[nH]1`: inactive: > 100 µM; `O=C1OC2C(O)C(=O)OC2C1O` (stereo not given): inactive: > 100 µM. In the case of `O=C(COc1ccc(/C=C/C(=O)c2ccc(Cl)cc2)cc1)Nc1c(Cl)cccc1Cl`, the GI50 was inactive: > 100 µM.

`COc1cccc(C2c3cc4c(cc3OC(O)(CO)C2C(=O)O)OCO4)c1.COc1cccc(C2c3cc4c(cc3OC3(O)COC(=O)C23)OCO4)c1` (stereo not given): the GI50 was inactive: > 100 µM. As to `Cc1cccc(/C(Br)=C2/OC(=O)c3ccccc32)c1`, the GI50 is inactive: > 100 µM. Next, `CCCCSC1=N/C(=C\c2ccc(N(C)C)cc2)C(=O)N1`: inactive: 30 µM; `CCOC(=O)Cn1c(=O)c2nc(SC)sc2n(-c2ccccc2)c1=S`: inactive: 14.3 µM. Next, `Cc1cccc2c1Oc1cc(Cl)ccc1C2NC(=O)CCN1CCCCC1` (stereo not given): inactive: 13.7 µM; `CCCCc1ccc(-n2c(C)c(COC(=O)NC)c(COC(=O)NC)c2C)cc1`: inactive: 10.3 µM. The figure for `O=C(/C=N/c1ccccc1S)c1ccco1` is inactive: 4.67 µM. Take `COc1ccc(OC)c(CCc2cc(OC)ccc2OC)c1`: the GI50 is active: 0.397 µM. For `CCOC(=O)c1ccc2c(c1)nc1n2C(c2c(F)cccc2F)SC1` (stereo not given), the GI50 is inactive: 25 µM. Next, `Cc1nc2ccccc2c(=O)n1NC(=S)Nc1cccc(Cl)c1`: inactive: > 100 µM.

In the case of `C(=N\c1ccc(-c2nc3ccccc3[nH]2)cc1)/c1cccs1`, the GI50 is inactive: > 100 µM.

For the compound `c1ccc(P(CCP(CCP(c2ccccc2)c2ccccc2)c2ccccc2)CCP(c2ccccc2)c2ccccc2)cc1` (stereo not given), the GI50 was inactive: 6.85 µM.

`O=c1[nH]nc(-c2ccccc2)n1-n1cnnc1`: the GI50 is inactive: > 100 µM.

For `CC1(C)C2CCC(=O)C1CC2` (stereo not given), the GI50 was inactive: > 100 µM. Next, `N#CCC(=O)N/N=C(\C(=O)Nc1ccc(Cl)c(Cl)c1)C1CN(c2ccccc2)N=C1N` (stereo not given): inactive: > 100 µM; `CC(C)NC(=O)OCC[S+]([O-])c1c(Cl)c(Cl)nn1C` (stereo not given): inactive: > 100 µM.

Consider `Cc1ccc(C2(C)CC/C(=N/N=C3/CCC(C)(c4ccc(C)c(C)c4)c4cc(C)c(C)cc43)c3cc(C)c(C)cc32)cc1C` (stereo not given), for which the GI50 is inactive: > 100 µM.

`CCOC(=O)C1=C(C(C)=O)CSC(c2ccccc2)=N1`: the GI50 was inactive: > 100 µM. Next, `Cc1ccc(S(=O)(=O)OC2CC(C(C)(C)C)CCC2c2ccccc2)cc1` (stereo not given): inactive: 79.1 µM; `CCCCOC(=O)C1C(c2ccc(Cl)cc2)NC(c2ccc(Cl)cc2)C(C(=O)OCCCC)S1(=O)=O` (stereo not given): inactive: > 100 µM; `C[C@H](O)C(=O)SC[C@H](NC(=O)CC[C@@H](N)C(=O)O)C(=O)NCC(=O)O`: inactive: > 100 µM.

Regarding `CN1CCC/C1=C1\C(=O)c2cccn2C1=O`, the GI50 is inactive: > 100 µM.

With `O=C(O)CCC1(Br)CCCCC(Br)C1=O` (stereo not given), the GI50 was inactive: > 100 µM. As for `CC(=O)C1=NN(c2ccccc2)C2(S1)SC(c1ccccc1)(c1ccccc1)c1ccccc12` (stereo not given), the GI50 was inactive: > 100 µM. As to `CCOC(=O)C1Cc2c(ccc(OC)c2OC)C(=O)C1N` (stereo not given), the GI50 is inactive: > 100 µM.

On to `N=c1oc2c(Br)cc(Br)cc2cc1C(=O)Nc1ccccn1`, for which the GI50 is inactive: 77.6 µM. The figure for `CCOc1ccc(/N=N/c2ccc3cc(/C(C)=N/NC(=O)/C(C#N)=C\c4ccc(N(CCC#N)CCC#N)cc4)c(=O)oc3c2)cc1` is inactive: > 10 µM; for `C[C@]12CC[C@@H]3c4ccc(OC(=O)c5ccccc5)cc4CC[C@H]3[C@@H]1CCC2OC(=O)c1cccc2c(=O)c3ccccc3[nH]c12` (stereo not given in full) it is inactive: 21.4 µM; for `COc1ccc2c(c1OCC(=O)O)C(=O)C(CCC(=O)O)CC2` (stereo not given) it is inactive: > 100 µM.

On to `COc1ccc(/N=C/C=C/Nc2ccc(OC)cc2)cc1`, for which the GI50 is inactive: 13 µM. Next, `COc1ccc([C@@]2(O)c3c(ccc(O)c3OC)[C@H]2OC)c(OC)c1`: inactive: 60.8 µM; `C=CCN1C(=O)/C(=C/c2ccc(C)cc2)NC1=S`: inactive: > 100 µM. On to `Oc1ccc(-c2cc(-c3c(O)cc(O)cc3O)on2)cc1`, for which the GI50 was inactive: > 100 µM. In the case of `CC1(C)C(CC(=O)O)CCCC1CC(=O)O` (stereo not given), the GI50 is inactive: > 100 µM. The figure for `N#CC(N)(C(=O)C(=O)NCCCNC(=O)C(=O)C(N)(C#N)c1ccc(Cl)cc1)c1ccc(Cl)cc1` (stereo not given) is inactive: > 100 µM. With `O=C1CSC(c2c[nH]c3ccccc23)N1c1cccc([N+](=O)[O-])c1` (stereo not given), the GI50 is inactive: > 100 µM. With `O=C1OC(c2ccccc2)=N/C1=C\c1ccc(N(CCCl)CCCl)cc1`, the GI50 is inactive: > 100 µM. With `C[N+]1([O-])C2CCC1CC(OC(=O)C(CO)c1ccccc1)C2` (stereo not given), the GI50 was inactive: > 100 µM. On to `C/C(CC(=O)Nc1ccc(Cl)cc1)=N\NC(N)=S`, for which the GI50 was inactive: > 100 µM. In the case of `CCC(=O)O[C@H]1CC[C@H]2[C@@H]3CCC4=C/C(=N/OC(=O)c5cccc6c(=O)c7ccccc7[nH]c56)CC[C@]4(C)[C@H]3CC[C@]12C`, the GI50 is inactive: 34.4 µM.

Turning to `CCCCCCCCCCCCCCCc1ccc(OCC(O)CO)cc1` (stereo not given), the GI50 is inactive: > 100 µM.

Regarding `COc1cc(Oc2nc3cc(F)c(F)cc3nc2-c2ccccc2)cc(OC)c1OC`, the GI50 is inactive: > 100 µM. The figure for `CCOP(=O)(OCC)/C(=C/n1c(=S)[nH]c2ccccc21)C(=O)OC` is inactive: > 100 µM.

Turning to `CC1=CCC2(C#N)CCC1C2=O` (stereo not given), the GI50 is inactive: > 100 µM. As to `CC(C)C(C/C=C1\CC(CO)(COC(=O)c2ccccc2)OC1=O)C(C)C` (stereo not given), the GI50 was inactive: 11 µM. Regarding `CC1C(=O)N(C)C2(CO)C(=O)O[C@H](C)C12O` (stereo not given in full), the GI50 was inactive: > 100 µM.

Consider `CC(C)C(C/C=C1/CC(CO)(COC(=O)CC(C(C)C)C(C)C)OC1=O)C(C)C` (stereo not given), for which the GI50 was inactive: 11.2 µM.

Regarding `O=C(/C=C/c1ccc(O)c(O)c1)OCCCOC(=O)/C=C/c1ccc(O)c(O)c1`, the GI50 is inactive: 35.6 µM. Regarding `Cc1cccc2[n+]1[C@H]1[C@H]([C@@H]3O[C@H]1c1ccccc13)[S+]([O-])N2` (stereo not given in full), the GI50 was inactive: 84.3 µM. Turning to `CC(=O)OC(C)c1cc2c(s1)C(=O)c1scc(C(C)OC(C)=O)c1C2=O` (stereo not given), the GI50 was inactive: 1.76 µM. Next, `COC(=O)c1cc(Br)c(Br)n1C`: inactive: > 100 µM. The figure for `O=C1C=C(N2CC2)C(=O)C=C1N1CC1` is inactive: 1.5 µM. For the compound `C[C@H](CS)C(=O)N1c2ccccc2C[C@H]1C(=O)O`, the GI50 is inactive: > 100 µM.
